`C=CCC=C` [1,4-pentadiene] returned a melting point of -148 °C.
As for `C#CCCC` [1-pentyne], the figure is -106 °C; as for `CC#CCC` [2-pentyne], -109 °C.
The molecule `C=CCC=C` [Penta-1,4-diene] returned a melting point of -148 °C.

As usually defined, the melting point is the temperature, or range, at which the solid turns liquid.
